pEC50, pIC50: −log10 of the molar value. For at least one compound, name, drawing or mass did not settle the structure. Some of these results come from one statement about several compounds together. Some compounds share one range, which may span the group rather than tell each member. Residues, ends and D or L forms follow the SMILES beside them.
Columns and labels:
MCH-2R [1] = biological target: T1, MCH-2R (Homo sapiens, UniProt Q969V1); assay: Radioligand binding assay (SPA), MCH-2R; conditions: for fold weaker binding at hMCH-2R: relative to Ac-hMCH(6-16)-NH2
T1 sequence (Q969V1 whole entry): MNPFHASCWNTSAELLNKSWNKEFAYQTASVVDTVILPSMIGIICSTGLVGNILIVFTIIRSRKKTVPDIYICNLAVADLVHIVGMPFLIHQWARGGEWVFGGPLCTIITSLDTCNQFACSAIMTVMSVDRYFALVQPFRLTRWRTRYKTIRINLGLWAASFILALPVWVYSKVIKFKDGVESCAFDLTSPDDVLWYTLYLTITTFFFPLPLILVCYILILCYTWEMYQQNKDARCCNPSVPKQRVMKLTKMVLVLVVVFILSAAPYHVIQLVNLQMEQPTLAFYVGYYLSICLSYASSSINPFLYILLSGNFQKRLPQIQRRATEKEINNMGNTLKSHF

MCH-2R [2] = biological target: T1, MCH-2R; assay: Aequorin bioluminescence functional assay, 293AEQ17/MCH-2R cells; type: cell-based; set-up: expressed in transfected cells; conditions: for fold lower agonist potency at hMCH-2R: relative to Ac-hMCH(6-16)-NH2; for pEC50: aequorin, 293AEQ17/MCH-2R cells
Text: (§1) The aequorin bioluminescence assay is a reliable test for identifying G-protein-coupled receptors that couple through the G protein subunit family consisting of Gq and G11. Gq and G11 coupling leads to the activation of phospholipase C, mobilization of intracellular calcium, and activation of protein kinase C.
Stable cell lines expressing either the MCH-1R or the MCH-2R and the aequorin reporter protein were used.
(§2) The cells were harvested, washed once in ECB medium, and resuspended to 500,000 cells/mL. 100 μL of cell suspension (corresponding to 5×10^4 cells) was then injected into the test plate containing the hMCH peptides, and the integrated light emission was recorded over 30 seconds, in 0.5-s units. 20 μL of lysis buffer (0.1% final Triton X-100 concentration) was then injected and the integrated light emission recorded over 10 seconds, in 0.5-s units. The “fractional response” values for each well were calculated by taking the ratio of the integrated response to the initial challenge to the total integrated luminescence including the Triton X-100 lysis response.

MCH-1R [3] = biological target: T2, MCH-1R (Homo sapiens, UniProt Q99705); assay: Aequorin bioluminescence functional assay, 293AEQ17/MCH-1R cells; type: cell-based; set-up: expressed in transfected cells; conditions: for fold lower agonist activity at hMCH-1R: relative to Ac-hMCH(6-16)-NH2; for pEC50: aequorin, 293AEQ17/MCH-1R cells
T2 sequence (Q99705 whole entry): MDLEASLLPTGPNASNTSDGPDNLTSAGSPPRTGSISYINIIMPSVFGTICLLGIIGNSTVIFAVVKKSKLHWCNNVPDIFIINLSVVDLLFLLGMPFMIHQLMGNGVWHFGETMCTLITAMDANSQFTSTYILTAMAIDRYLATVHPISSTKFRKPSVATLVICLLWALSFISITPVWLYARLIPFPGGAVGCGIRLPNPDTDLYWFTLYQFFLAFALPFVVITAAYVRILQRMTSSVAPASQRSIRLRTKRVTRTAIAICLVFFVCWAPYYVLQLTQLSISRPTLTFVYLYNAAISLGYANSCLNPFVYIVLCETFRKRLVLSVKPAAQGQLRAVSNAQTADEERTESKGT
Experimental: as §1
Stable cell lines expressing either the MCH-1R or the MCH-2R and the aequorin reporter protein were used. The assay was performed using a Luminoskan RT luminometer (Labsystems Inc., Gaithersburg, Md.) controlled by custom software written for a Macintosh PowerPC 6100.
as §2

MCH-1R [4] = biological target: T2, MCH-1R; conditions: read-out: MCH-1R IC50; [125I]-[Phe13,Tyr19]-hMCH SPA, CHO/MCH-1R membranes

CSCC[C@@H]1NC(=O)[C@@H](NC(=O)[C@H](CCCNC(=N)N)NC(C)=O)CSSC[C@@H](C(N)=O)NC(=O)[C@@H]2CCCN2C(=O)[C@H](CCCNC(=N)N)NC(=O)[C@H](Cc2ccc(O)cc2)NC(=O)[C@H](C(C)C)NC(=O)[C@H](CCCNC(=N)N)NC(=O)[C@H](CC(C)C)NC(=O)[C@H](CC(C)C)NC1=O [SEQ. ID. NO. 17]
fold weaker binding at hMCH-2R (MCH-2R [1]): 10- to 70 fold

CSCC[C@@H]1NC(=O)[C@@H](NC(=O)[C@H](CCCNC(=N)N)NC(C)=O)CSSC[C@@H](C(N)=O)NC(=O)[C@@H]2CCCN2C(=O)[C@H](CCCNC(=N)N)NC(=O)[C@H](Cc2ccc(O)cc2)NC(=O)[C@H](C(C)C)NC(=O)[C@H](CCCNC(=N)N)NC(=O)[C@H](CC2CCCCC2)NC(=O)[C@H](CC(C)C)NC1=O [SEQ. ID. NO. 19]
fold weaker binding at hMCH-2R (MCH-2R [1]): 10- to 70 fold

CSCC[C@@H]1NC(=O)[C@@H](NC(=O)[C@H](CCCNC(=N)N)NC(C)=O)CSSC[C@@H](C(N)=O)NC(=O)[C@@H]2CCCN2C(=O)[C@H](CCCNC(=N)N)NC(=O)[C@H](Cc2ccc(O)cc2)NC(=O)[C@H](C(C)C)NC(=O)[C@H](CCCNC(=N)N)NC(=O)[C@H](Cc2ccc3ccccc3c2)NC(=O)[C@H](CC(C)C)NC1=O [SEQ. ID. NO. 21]
fold weaker binding at hMCH-2R (MCH-2R [1]): 10- to 70 fold

CSCC[C@@H]1NC(=O)[C@@H](NC(=O)[C@H](CCCNC(=N)N)NC(C)=O)CSSC[C@@H](C(N)=O)NC(=O)[C@@H]2CCCN2C(=O)[C@H](CCCNC(=N)N)NC(=O)[C@H](Cc2ccc(O)cc2)NC(=O)[C@H](C(C)C)NC(=O)[C@H](CCCNC(=N)N)NC(=O)[C@H](CC(N)=O)NC(=O)[C@H](CC(C)C)NC1=O [SEQ. ID. NO. 25] (HELM PEPTIDE1{[ac].R.C.M.L.N.R.V.Y.R.P.C.[am]}$PEPTIDE1,PEPTIDE1,3:R3-12:R3$$$V2.0)
fold lower agonist potency at hMCH-2R (MCH-2R [2]): 3 to 50 fold | fold lower agonist activity at hMCH-1R (MCH-1R [3]): 3 to 50 fold

CSCC[C@@H]1NC(=O)[C@@H](NC(=O)[C@H](CCCNC(=N)N)NC(C)=O)CSSC[C@@H](C(N)=O)NC(=O)[C@@H]2CCCN2C(=O)[C@H](CCCNC(=N)N)NC(=O)[C@H](Cc2ccc(O)cc2)NC(=O)[C@H](C(C)C)NC(=O)[C@H](CCCNC(=N)N)NC(=O)[C@H](CO)NC(=O)[C@H](CC(C)C)NC1=O [SEQ. ID. NO. 26] (HELM PEPTIDE1{[ac].R.C.M.L.S.R.V.Y.R.P.C.[am]}$PEPTIDE1,PEPTIDE1,3:R3-12:R3$$$V2.0)
fold lower agonist potency at hMCH-2R (MCH-2R [2]): 3 to 50 fold | fold lower agonist activity at hMCH-1R (MCH-1R [3]): 3 to 50 fold

CSCC[C@@H]1NC(=O)[C@@H](NC(=O)[C@H](CCCNC(=N)N)NC(C)=O)CSSC[C@@H](C(N)=O)NC(=O)[C@@H]2CCCN2C(=O)[C@H](CCCNC(=N)N)NC(=O)[C@H](Cc2ccc(O)cc2)NC(=O)[C@H](C(C)C)NC(=O)[C@H](CCCNC(=N)N)NC(=O)[C@H](CCCNC(N)=O)NC(=O)[C@H](CC(C)C)NC1=O [SEQ. ID. NO. 27]
fold lower agonist potency at hMCH-2R (MCH-2R [2]): 3 to 50 fold | fold lower agonist activity at hMCH-1R (MCH-1R [3]): 3 to 50 fold

CCCC[C@@H]1NC(=O)[C@@H](NC(=O)[C@H](N)CCCNC(=N)N)CSSC[C@@H](C(N)=O)NC(=O)[C@@H]2CCCN2C(=O)[C@H](CCCNC(=N)N)NC(=O)[C@H](Cc2ccc(O)cc2)NC(=O)[C@H](C(C)C)NC(=O)[C@H](CCCNC(=N)N)NC(=O)[C@H](CC(N)=O)NC(=O)[C@H](CC(C)C)NC1=O [SEQ. ID. NO. 32] (HELM PEPTIDE1{[dR].C.[Nle].L.N.R.V.Y.R.P.C.[am]}$PEPTIDE1,PEPTIDE1,2:R3-11:R3$$$V2.0)
pEC50 (MCH-2R [2]): 5.83 | pIC50 (MCH-2R [1]; read-out: MCH-2R IC50, [125I]-[Phe13,Tyr19]-hMCH SPA, COS or CHO MCH-2R membranes): 6.60 | pEC50 (MCH-1R [3]): 6.46 | pIC50 (MCH-1R [4]): 10.05

CSCC[C@@H]1NC(=O)[C@@H](NC(=O)[C@@H](CCCNC(N)=O)NC(C)=O)CSSC[C@@H](C(N)=O)NC(=O)[C@@H]2CCCN2C(=O)[C@H](CCCNC(=N)N)NC(=O)[C@H](Cc2ccc(O)cc2)NC(=O)[C@H](C(C)C)NC(=O)[C@H](CCCNC(=N)N)NC(=O)[C@H](CC(N)=O)NC(=O)[C@H](CC(C)C)NC1=O [SEQ. ID. NO. 34] (HELM PEPTIDE1{[ac].[NC(=O)NCCC[C@@H](N[*:1])C(=O)[*:2]].C.M.L.N.R.V.Y.R.P.C.[am]}$PEPTIDE1,PEPTIDE1,3:R3-12:R3$$$V2.0)
pEC50 (MCH-2R [2]): < 5.00 | pEC50 (MCH-1R [3]): 5.84 | pIC50 (MCH-1R [4]): 8.08

Source: US7273846B2, “Selective melanin-concentrating hormone type-1 receptor agonists” (priority 2002, dated 2007)
